Here are results for 43 compounds from PMC4336329 (PLoS ONE, 2015).

The campaign covered roughly 310,000 compounds. About 2,200 (0.71%) showed an effect of 50% or more. The effect is printed as a negative number. This is one part of the list.

The target of this test is human ether-à-go-go-related gene (hERG) potassium channel (human, UniProt Q12809). Description: primary screen, population patch clamp on CHO cells stably expressing hERG.
human ether-à-go-go-related gene (hERG) potassium channel, sequence (Q12809 whole entry, looked up): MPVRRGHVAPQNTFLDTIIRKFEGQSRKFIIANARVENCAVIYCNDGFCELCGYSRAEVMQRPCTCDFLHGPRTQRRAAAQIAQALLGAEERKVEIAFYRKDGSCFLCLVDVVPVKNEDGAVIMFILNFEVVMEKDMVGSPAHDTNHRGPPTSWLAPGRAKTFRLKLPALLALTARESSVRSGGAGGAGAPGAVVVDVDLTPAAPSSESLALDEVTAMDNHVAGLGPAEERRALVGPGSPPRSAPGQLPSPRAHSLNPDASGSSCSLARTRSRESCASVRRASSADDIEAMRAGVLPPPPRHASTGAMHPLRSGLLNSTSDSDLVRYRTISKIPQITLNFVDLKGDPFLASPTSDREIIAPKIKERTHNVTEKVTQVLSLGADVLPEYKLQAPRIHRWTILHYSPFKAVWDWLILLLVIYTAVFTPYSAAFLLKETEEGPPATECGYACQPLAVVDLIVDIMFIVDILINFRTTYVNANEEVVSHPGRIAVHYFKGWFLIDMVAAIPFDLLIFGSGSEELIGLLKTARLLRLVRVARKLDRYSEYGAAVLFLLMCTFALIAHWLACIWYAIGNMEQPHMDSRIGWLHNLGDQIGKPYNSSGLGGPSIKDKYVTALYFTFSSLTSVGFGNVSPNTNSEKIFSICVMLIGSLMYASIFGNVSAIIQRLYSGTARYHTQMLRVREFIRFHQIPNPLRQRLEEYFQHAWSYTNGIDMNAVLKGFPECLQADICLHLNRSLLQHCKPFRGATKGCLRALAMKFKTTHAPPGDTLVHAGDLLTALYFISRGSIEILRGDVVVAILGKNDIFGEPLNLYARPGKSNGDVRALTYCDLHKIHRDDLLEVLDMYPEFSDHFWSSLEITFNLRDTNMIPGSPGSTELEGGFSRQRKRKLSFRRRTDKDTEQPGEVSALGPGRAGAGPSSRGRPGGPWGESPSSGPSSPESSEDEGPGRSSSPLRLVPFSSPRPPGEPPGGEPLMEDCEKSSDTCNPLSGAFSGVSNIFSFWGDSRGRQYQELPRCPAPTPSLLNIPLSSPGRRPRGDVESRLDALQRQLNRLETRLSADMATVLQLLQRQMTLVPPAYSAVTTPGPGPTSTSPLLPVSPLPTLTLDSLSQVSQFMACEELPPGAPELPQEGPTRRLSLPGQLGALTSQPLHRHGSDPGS
Take `Cc1c(NC(=O)C(C)OC(=O)c2cccc(S(=O)(=O)N(C)C)c2)c(=O)n(-c2ccccc2)n1C` (stereo not shown): the “hERG current change (%, negative = inhibition) at 1uM” value stood at 16.7%.

Take `Cc1cc(C(=O)N2CCOCC2)n(-c2ccccc2)n1`: the “hERG current change (%, negative = inhibition) at 1uM” value worked out at 14%.

Turning to `CCOC(=O)C1(CC2CCCCO2)CCN(S(=O)(=O)c2ccccc2)CC1` (stereo not shown), the “hERG current change (%, negative = inhibition) at 1uM” value is listed as 14.3%.

On to `CC(=O)NNC(=O)CCn1c2c(c3ccccc31)CCCC2`, for which the “hERG current change (%, negative = inhibition) at 1uM” value came to 11.1%.

For `CN1CCN(C(=O)/C(=C\c2cccs2)NC(=O)c2ccco2)CC1`, the “hERG current change (%, negative = inhibition) at 1uM” value is listed as -65.2%.

On to `O=C(Nc1ccccc1)N(C1=NCCCCS1)c1cccc2ccccc12`, for which the “hERG current change (%, negative = inhibition) at 1uM” value is reported as 5.62%.

Regarding `Cc1cc(N2CCC(N(C)C3CCCC3)CC2)nc2cc(O)ccc12`, the “hERG current change (%, negative = inhibition) at 1uM” value was 10.9%.

Turning to `COCCN=c1scc(-c2cccs2)n1/N=C/c1ccc(O)c(O)c1O`, the “hERG current change (%, negative = inhibition) at 1uM” value was determined as 4.07%.

Consider `COc1ccc(OC(C)C(=O)N2CCc3ccccc3C2)cc1` (stereo not shown), for which the “hERG current change (%, negative = inhibition) at 1uM” value is 3.27%.

As to `O=C(c1ccc(S(=O)(=O)c2cccc(Cl)c2)c([N+](=O)[O-])c1)N1CCN(c2ccccn2)CC1`, the “hERG current change (%, negative = inhibition) at 1uM” value is on record as -0.439%.

`CCN1CCN(Cc2ccc(OC)c(OCc3ccccc3)c2)CC1`: the “hERG current change (%, negative = inhibition) at 1uM” value is -5.77%.

In the case of `COc1ccc2c(c1)C(C)=CC(C)(C)N2C(=O)C(C)N1C(=O)c2ccccc2C1=O` (stereo not shown), the “hERG current change (%, negative = inhibition) at 1uM” value was -0.0641%.

For `COCCCNC(=O)C(=O)NC1CCCCC1C` (stereo not shown), the “hERG current change (%, negative = inhibition) at 1uM” value was found to be 13.9%.

For `O=C(O)c1ccc(S(=O)(=O)c2ccc3c(c2)C(=O)N(c2ccccc2[N+](=O)[O-])C3=O)cc1`, the “hERG current change (%, negative = inhibition) at 1uM” value worked out at 20.6%.

For the compound `CCCC(c1nnnn1C(C)(C)C)N1CCN(c2ccccc2)CC1` (stereo not shown), the “hERG current change (%, negative = inhibition) at 1uM” value turned out to be 2.32%.

As to `Cc1ccc(C(=O)OCC(=O)c2ccccc2)cc1`, the “hERG current change (%, negative = inhibition) at 1uM” value is 2.78%.

As for `CC(C)CCNC(=O)c1cc(-c2ccco2)nc2ccccc12`, the “hERG current change (%, negative = inhibition) at 1uM” value came out at 13.1%.

Turning to `O=C(Nc1ccccc1Oc1ccccc1)c1cnccn1`, the “hERG current change (%, negative = inhibition) at 1uM” value is reported as 0.812%.

On to `Cc1ccc(Cn2ccc(NC(=O)c3cc(-c4ccc(Cl)cc4)on3)n2)cc1`, for which the “hERG current change (%, negative = inhibition) at 1uM” value came out at 20.3%.

Take `CCCCCn1nc(C)c(/C=N\NC(=O)c2cc(C)oc2C)c1C`: the “hERG current change (%, negative = inhibition) at 1uM” value is -15.4%.

`CCCc1cc(C(=O)Nc2cccc3ccccc23)n(C)n1`: the “hERG current change (%, negative = inhibition) at 1uM” value is listed as 14.9%.

For the compound `CCN(C(=S)NC(=O)Cc1ccc(OC)cc1)c1ccccc1`, the “hERG current change (%, negative = inhibition) at 1uM” value was 8.24%.

For `COc1ccccc1NC(=O)Cn1c(CCC(=O)O)ccc1-c1ccccc1`, the “hERG current change (%, negative = inhibition) at 1uM” value is listed as 11%.

Take `Cc1ccc(C(=O)Nc2cc(C(F)(F)F)ccc2-n2cncn2)o1`: the “hERG current change (%, negative = inhibition) at 1uM” value worked out at 3.24%.

Regarding `COc1cc(C(=O)NC(C)c2cc(C)ccc2C)ccc1OCC(=O)N1CCOCC1` (stereo not shown), the “hERG current change (%, negative = inhibition) at 1uM” value was -10.7%.

In the case of `CSc1nnc(-c2ccccc2)n1C`, the “hERG current change (%, negative = inhibition) at 1uM” value is recorded as 11.8%.

As to `O=C(COc1ccc2c3c(c(=O)oc2c1)CCCC3)NCCCN1CCOCC1`, the “hERG current change (%, negative = inhibition) at 1uM” value came out at 1.79%.

For the compound `CCC(CC)n1[nH]c(=O)cc1N`, the “hERG current change (%, negative = inhibition) at 1uM” value is 4.67%.

On to `Cc1ccc(S(=O)(=O)NCCC(=O)NCCSc2ccc(Br)cc2)cc1`, for which the “hERG current change (%, negative = inhibition) at 1uM” value is given as 9.99%.

For the compound `N#Cc1cnc(SCCc2ccccc2)nc1N`, the “hERG current change (%, negative = inhibition) at 1uM” value is given as 1.46%.

In the case of `O=C(NCc1ccc2c(c1)OCO2)c1cc(-c2ccccc2)on1`, the “hERG current change (%, negative = inhibition) at 1uM” value came to 7.99%.

For `COc1cc2[nH]c(=S)nc(NCc3cccc(Cl)c3)c2cc1OC`, the “hERG current change (%, negative = inhibition) at 1uM” value stood at 11.1%.

Turning to `Cn1c(SCC(=O)Nc2nccs2)nnc1-c1ccc(S(=O)(=O)N2CCCC2)cc1`, the “hERG current change (%, negative = inhibition) at 1uM” value is 5.76%.

Take `CCN(CC)S(=O)(=O)c1ccc(-c2nnc3sc4cccc(C)c4n23)cc1`: the “hERG current change (%, negative = inhibition) at 1uM” value is reported as 4.32%.

As for `C/C(=N\NC(=O)c1cccc([N+](=O)[O-])c1)c1ccncc1`, the “hERG current change (%, negative = inhibition) at 1uM” value is given as 3.5%.

As to `CCN(c1ccc(OC)cc1)S(=O)(=O)c1csc(C(=O)N2CCCC2)c1`, the “hERG current change (%, negative = inhibition) at 1uM” value is given as -8.29%.

For `Cl.O=C(CN1CCCC1)Nc1ccc(OC(F)(F)F)cc1`, the “hERG current change (%, negative = inhibition) at 1uM” value is recorded as -16.5%.

Consider `Nc1nc(CSc2ccccn2)nc(Nc2ccccc2)n1`, for which the “hERG current change (%, negative = inhibition) at 1uM” value stood at 14.8%.

Turning to `Cc1ccc2c(Cl)cc(Cl)c(OCC(=O)NC(=O)NCc3ccco3)c2n1`, the “hERG current change (%, negative = inhibition) at 1uM” value was found to be 7.97%.

As for `O=C(/C=C/c1ccccc1)OCCCN=C1NS(=O)(=O)c2ccccc21`, the “hERG current change (%, negative = inhibition) at 1uM” value was determined as 7.74%.

Turning to `CCn1c2ccccc2c2cc(CN3CCN(Cc4cc(OC)ccc4O)CC3)ccc21.O=C(O)C(=O)O`, the “hERG current change (%, negative = inhibition) at 1uM” value is listed as 9.14%.

Take `CC1=C(C(=O)Nc2ccccc2)C(c2cccs2)NC(=O)N1` (stereo not shown): the “hERG current change (%, negative = inhibition) at 1uM” value turned out to be 6.05%.

Turning to `Cc1cc2c(c(=O)o1)C1(C(=O)N(C)c3ccccc31)C(C#N)=C(N)O2` (stereo not shown), the “hERG current change (%, negative = inhibition) at 1uM” value came to 5.81%.
